The results in this text go back to ChEMBL document CHEMBL4888484, “Replenishing the malaria drug discovery pipeline: Screening and hit evaluation of the MMV Hit Generation Library 1 (HGL1) against asexual blood stage Plasmodium falciparum ,using a nano luciferase reporter read-out” (2022).

Broadly, the % Inhibition is the relative decrease from the control value, in per cent.

About 540 (0.36%) of roughly 150,000 compounds showed an effect of 50% or more. The list shows a part of the results.

In this test the test system is Plasmodium falciparum. The test is described as follows: Primary screen in NF54 nanoGlo assay, in single point, at 2uM, 72h; a lower Z score goes with more inhibition. It is filed as functional, Erythrocyte. Particulars: timepoint 72 hour.
Regarding `CCNC(=O)N1CCC(Cc2ncc(C)n2Cc2ccc(F)cc2)CC1`, the “% Inhibition” value is recorded as 6% and the Z score is on record as -1.07.
For the compound `Cc1cccc(-n2cnnc2[C@@H]2CCN2Cc2ccccc2)c1`, the “% Inhibition” value is on record as -15% and the Z score came out at 2.13.
Taken in the same sequence, the figures for `COC(=O)COc1cc(-c2ccc(Cl)cc2)nc2ccc(NC(=O)c3cccc(F)c3)cc12` were -14% and 2.44.
With `CC(NC(=O)N1CCC(C)C1CO)c1cnn(Cc2ccccc2)c1` (centres undefined), the “% Inhibition” value is -5% and the Z score is listed as 0.68.
Regarding `O=C(c1cccnc1)N1C[C@H]2CC[C@@H](C1)N(C(=O)c1cc3ccccc3[nH]1)C2`, the “% Inhibition” value was -8% and the Z score was determined as 1.61.
Consider `Cc1ccc(-c2nc3ccc(C)cn3c2NC(=O)C2C[C@H]2c2ccccc2)cc1` (some centres undefined), for which the “% Inhibition” value is -5% and the Z score turned out to be 0.73.
`Cc1[nH]nc(CNCCCc2ccccc2F)c1Cl`: the “% Inhibition” value came to 1% and the Z score is listed as -0.27.
As to `Cc1cccc2c1O[C@H](C(=O)N(C)Cc1c(C)nc3sccn13)C2`, the “% Inhibition” value is -13% and the Z score is on record as 1.32.
Take `Cc1ccc(CNC(=O)Nc2cccc3ncccc23)cc1`: the “% Inhibition” value is -8% and the Z score is recorded as 1.15.
For `O=C(NCCn1ccnc1)c1ccco1` the same measures were -7% and 1.08.
With `CCCn1c(=O)[nH]c2c(C(=O)N3CCN(c4ccccc4F)CC3)snc2c1=O`, the “% Inhibition” value was -11% and the Z score is 1.83.
As to `O=C(NCc1ccc(-n2cncn2)nc1)c1ccc2c(c1)CCCC2`, the “% Inhibition” value amounted to 1% and the Z score is -0.18.
On to `N#Cc1ccc(N2CCCC(NC(=O)C3CCCOC3)C2)c(F)c1` (centres undefined), for which the “% Inhibition” value is -4% and the Z score was determined as 0.83.
On to `COC(=O)N[C@H](C(=O)Nc1ccnnc1)C(C)C`, for which the “% Inhibition” value is -2% and the Z score amounted to 0.35.
Taken in the same sequence, the figures for `CC=CCS(=O)(=O)CC(=O)N(C)CC1CCCCC1` were -11% and 1.65.
Regarding `C#C[C@H](C)NC(=O)Nc1cccn(CC(F)(F)F)c1=O`, the “% Inhibition” value is reported as -14% and the Z score is 2.58.
Regarding `CCc1csc(CNCc2c[nH]cn2)n1`, the “% Inhibition” value was -16% and the Z score is recorded as 1.95.
For `CO[C@@H](CNC(=O)c1ccoc1)c1cc2ccccc2o1` the same measures were -4% and 0.65.
With `Cc1cc(C)n(Cc2nc(Cc3ccccc3)no2)n1`, the “% Inhibition” value is reported as -10% and the Z score stood at 0.91.
As to `CN(CC(=O)NC1CCCCCCC1)S(=O)(=O)c1ccccc1`, the “% Inhibition” value was -5% and the Z score was found to be 0.74.
For the compound `O=C(Nc1nc(-c2ccccc2)cc(-c2ccccc2)n1)c1ccccc1F`, the “% Inhibition” value is listed as -15% and the Z score is recorded as 2.77.
For `Cc1nc(C)c(CC(=O)Nc2nc3ccccc3s2)s1`, the “% Inhibition” value is reported as -12% and the Z score stood at 1.99.
Take `Cc1ccc(CN2c3ccc(F)cc3OC[C@@H]2CC(=O)NCc2ccco2)cc1`: the “% Inhibition” value is reported as -5% and the Z score was determined as 0.97.
As for `Cc1nnc([C@H](C)NS(=O)(=O)c2ccc3c(c2)OCCCO3)o1`, the “% Inhibition” value is reported as -7% and the Z score amounted to 1.
On to `CCN1CCCC[C@@H]1CNCc1cnc(C)nc1`, for which the “% Inhibition” value was -7% and the Z score is on record as 0.77.
In the case of `CC(C)Cc1nsc(N2CCN(C)[C@]3(CCOC3)C2)n1`, the “% Inhibition” value is listed as 3% and the Z score is recorded as -0.42.
Taken in the same sequence, the figures for `COc1ccc(CN2C(=O)N[C@@H](CC(=O)Nc3ccc4c(c3)OCO4)C2=O)cc1` were -3% and 0.39.
Consider `Cc1ccc2ncccc2c1CN(C)CCCN(C)C`, for which the “% Inhibition” value is recorded as -5% and the Z score is on record as 0.95.
`O=C(c1ccc2nccnc2c1)N1CCC2(CCO2)CC1`: the “% Inhibition” value is on record as 1% and the Z score is listed as -0.18.
`OC1(Cc2cc(-c3ccccc3)no2)CCN(CC2CCCC2)CC1`: the “% Inhibition” value is -2% and the Z score amounted to 0.33.
For `Cc1c(O)cccc1C(=O)NCC1(c2ccccn2)CC1`, the “% Inhibition” value was -15% and the Z score was determined as 2.9.
Take `CC1(C)[C@@H](NC(=O)Nc2cnn(CC(=O)N3CCOCC3)c2)[C@@H]1c1ccccc1`: the “% Inhibition” value worked out at 17% and the Z score was -1.99.
As for `Cc1nnc2sc(-c3cnn(-c4ccccn4)c3C(F)(F)F)nn12`, the “% Inhibition” value turned out to be 35% and the Z score is given as -4.46.
Regarding `Cc1n[nH]nc1C(=O)Nc1nc(C)c(Cc2ccccc2Cl)s1`, the “% Inhibition” value is -12% and the Z score turned out to be 1.64.
`Cc1occc1CN[C@@H]1CCOc2c(F)cccc21`: the “% Inhibition” value was -10% and the Z score came out at 1.89.
Turning to `C#CCOC[C@@H](O)CN(CCC)Cc1c(-c2ccccc2)nn(C)c1Oc1ccc(F)cc1`, the “% Inhibition” value is -17% and the Z score is on record as 2.14.
As to `COc1ccc(C2=NN(C(=O)CN(CCN3CCOCC3)C(=O)C3CCC3)[C@H](c3ccc(OC)cc3)C2)cc1`, the “% Inhibition” value is on record as -2% and the Z score is 0.25.
As to `Cc1cccc(NCCc2ncc(C)s2)n1`, the “% Inhibition” value is -3% and the Z score stood at 0.42.
With `Cc1ccccc1-c1cc2n(C)c(C)c(CCC(=O)NCc3ccc4c(c3)OCO4)c(=O)n2n1`, the “% Inhibition” value is reported as -10% and the Z score was 1.31.
As for `CCCN1C(=O)CN(S(=O)(=O)c2ccc(OC)cc2)C[C@@]1(C)C(=O)NCc1ccc(F)cc1`, the “% Inhibition” value is reported as -12% and the Z score was 1.46.
As for `COc1cc(N[C@H]2CCCN(Cc3cncn3C)C2)cc(OC)c1`, the “% Inhibition” value is listed as -4% and the Z score came out at 0.5.
Consider `Cc1nc2c(NCC3(N4CCOCC4)CCCCCC3)ncnc2o1`, for which the “% Inhibition” value is recorded as -12% and the Z score amounted to 2.45.
